Laboratory results reported in the RNAGym collection of RNA variant scans (doi:10.1073/pnas.2313332121).
Variants at the floor of the assay are shown more often than the library holds them.

B1: TPR 5TU (parent)
chain: GGAUCUUCUCGAUCUAACAAAAAAGACAAAUCUGCCACAAAGCUUGAGAGCAUCUUCGGAUGCAGAGGCGGCAGCCUUCGGUGGCGCGAUAGCGCCAACGUUCUCAACUAUGACACGCAAAACGCGUGCUCCGUUGAAUGGAGUUUAUCAUG

Variants of: B1
Experiment: polymerase ribozyme fitness, log enrichment relative to wild type (log ratio); higher = more active; in vitro selection for triplet polymerase activity
Procedure, shortened: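 Fitness compares each genotype's enrichment to that of the wild type on a logarithmic scale, averaging replicates with inverse-variance weights. The logarithm is base 2. Enrichment came from Illumina sequencing of input and output libraries after one triplicate round of in vitro selection, which included frozen incubation at −7 °C, of PCR-built, transcribed mutant libraries of each subunit of a heterodimeric triplet polymerase ribozyme. Only genotypes with ≥10 input reads and ≥1 read per output were kept.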

Polymerase ribozyme fitness (log ratio), ≤ -4.2:
GGAUCUUCUCGAUCUAACAAAAUACACAAAUCUGCCACAAAGCUUGAGAGCAUCUUCGGAUGCAGAGACGGCAGCCCUCGGUGGCGCGAUAGCGCCAAUGUUCUCAACUAUGACACGCAAAACGCGUGCCCCGUUGAAUGCAGUUUAUCAUG [A23U G25C G68A U77C C99U U130C G141C]
GGAUCUUCUCGAUCUAACAAAAUAUACAAAUCUGCCGCAAAGCUUGAGAACAUCUUCGGAUGCAGAGGCGGCAGCCUUCGGUGGCGCCAUAGCGCCAACGUUCUCAAUUAUGACACGCAAGACUCGUGCUCCGUUGAAUGGAGUUUAUCAUG [A23U G25U A37G G50A G88C C108U A121G G124U]
GGAUCUUCUCGAUCUAACAAAAUAUACAAAUCUGCCACAAAGCUUGAGAGCAUCUUCGGUUGCAGAGGCGGCAGCCUUCGGUGGCGCGAUAGCGCCAACUUUCUCAACUAUGACACGCAAAACGCGUGCUCCGUUGAAUGGAGUUUAUCAUG [A23U G25U A60U G100U]
GGAUCUUCUCGAUCUAACAAAAUAUACAAAUCUGACACAAAGCUUGAGAGCAUCUUCGGAUGCAGAGGCGGCAGCCUUCGGUGGCGCGAUAGCGCCAACGUUCUCAACUAUGACACGCAAAACGCGUGCUCCGUUGAAUGGAAUUUAUCAUG [A23U G25U C35A G143A]
GGAUCUUCUCGAUCUAACAAAAUAUACAAAUCUGCCACAAAGCUUGAGAGCAUCUCCGGAUGCAGAGGCGGCAGCCUUCGGUGGCGCGAUAGAGGCAACGUUCUCAACUAUGACACGCACAACUCGUGCUCCGUUGAAUGGAGUUUAACAUG [A23U G25U U56C C93A C95G A120C G124U U148A]
GGAUCUUCUCGAUCUAACAAAAUAGACAAAUCUACCACACAGCUUGAGAGCAUCUUCGGAUGCAGAGGCGGCAGCCUUCGGUGGCGCGAUAGCGCCAACGUUCUCAUCUAUGACACGCAAAACGCGUGCUCUGUUGAAUGGACUUUAUCAUG [A23U G34A A40C A107U C132U G143C]
GGAUCUUCUCGAUCUAACAAAAUAGACAAAUCUACCACAAAGCUUGAGAGCAUCUUCGGAUGCAGAGGCGGCAGCCUUCGGUGGCGCGAUAGGGCCAGCGUUCUCAACUAUGACACACAAAACGCGUGCUCCGUUGAAUGGAGUUUAUCAUG [A23U G34A C93G A98G G117A]
GGAUCUUCUCGAUCUAACAAAAUAGACAAAUCUGCCACAAAACUUGAGAGCAUCUUCGGAUGCAGAGGCGGCAGCCUUCGGUAGCGCGAUAGCGCCAACGUUCUCAACUAUGACACGCAAAACGCGUGCUCCGUUGAAUGUAGUUUAUCAUG [A23U G42A G83A G141U]
GGAUCUUCUCGAUCUAACAAAAUAGACAAAUCUGCCACAAACCUUGAGAGCAUCUUCGGAUUCAGAGGCGGCAGCCUUCGGUGGCGCGAUAGCGCCAACGUUCUCAACUAUGACACGCAAAACGCGUGCUCCGUUGAAUGGAGUUUUUCAUG [A23U G42C G62U A147U]
GGAUCUUCUCGAUCUAACAAAAUAGACAAAUCUGCCACAAACCUUGAGAGCAUCUUCGGAUGCAGAGGCGGCAGCCUUCGGUAGCGCGAUAGCGCCAACGUUCUCAACUAUGACACGCAAAACGCGUGCUCCGUUGAAUGGAGUUUAUCAUG [A23U G42C G83A]
GGAUCUUCUCGAUCUAACAAAAUAGACAAAUCUGCCACAAAUCUUGAGAGCAUCUUCUGAUGCAGAGGCGGCAGUCUUCGGUGGCGCGAUAGCGCCAACGUUCUCAACUAUGACACGCAAAACGCGUGCUCCGUUGAAUGGAGUUUAGCAUG [A23U G42U G58U C75U U148G]
GGAUCUUCUCGAUCUAACAAAAUAGACAAAUCUGCCACAAAGCUUAAGAGCAUCUUCGGAUGCAGAGGCGGCAGCCUUCGGUGGCGGGAUAGCGCUAACGUUCUCAACUAUGAUACGCAAAACGGGUGCUCCGUUGAAUGGAGUUUAUCCUG [A23U G46A C87G C96U C114U C125G A150C]
GGAUCUUCUCGAUCUAACAAAAUAGACAAAUCUGCCACAAAGCUUAAGAGCAUCUUCGGAUGCAGAGGCGGCAGCCUUCGGUGGCGCGAUAGUGCCAACGUUCUCAACUAUGACACGCAAAACGCGUGCUCCGUUGAAUGGAGUUUAUCAUG [A23U G46A C93U]
GGAUCUUCUCGAUCUAACAAAAUAGACAAAUCUGCCACAAAGCUUCAGACCAUCUUCAGAUGCAGAGGCGGCAGCCUUGGGUGGCGCAAUAGCGCCAACGUUCUCAACUAUGACACGCAAAACGCGUGCUCCGUUGAAUGGAGUUUAUCAUG [A23U G46C G50C G58A C79G G88A]
GGAUCUUCUCGAUCUAACAAAAUAGACAAAUCUGCCACAAAGCUUUAGAGCAUCUUCGGAUGCAGAGGCGGCAGCCUUCGGUGGCGUUAUAGCGCCAACGUUCUCAACUAUGACACGCGCAACGCGUGCUCCUUUGAAUGGAGUUUAUCAUG [A23U G46U C87U G88U A119G A120C G133U]
GGAUCUUCUCGAUCUAACAAAAUAGACAAAUCUGCCACAAAGCUUUAGAGCAUCUUCGGAUGCAGAGGCGGCAGCCUUCGGCGGCACGAUAGCGCCAACGUUCUCAACUAUGACACGCAAAACGCGUGCUCCGUUAAAUGGAGUUUAUCAUG [A23U G46U U82C G86A G136A]
GGAUCUUCUCGAUCUAACAAAAUAGACAAAUCUGCCACAAAGCUUGAAAGCAUCUUCGGAUGCAGAGGCGGCAGCCUUCGGUGGUGCGAUAGCGCCAACGUUCUCAACUAUGACACGCAAAACGCGUGCUCCGUUGAAUGGAGUUUAUCAUG [A23U G48A C85U]
GGAUCUUCUCGAUCUAACAAAAUAGACAAAUCUGCCACAAAGCUUGACAGCAUCUUCGGAUGCAGAGGCGGCAGCGUUUGGUGGCGGGUUAGCGCCAACGUUCUCAACUAUGACACGCAAAACGCGUGCUCCGUGGAAUGGAGUUUAUAAUG [A23U G48C C76G C79U C87G A89U U135G C149A]
GGAUCUUCUCGAUCUAACAAAAUAGACAAAUCUGCCACAAAGCUUGAGAACAUCUUCGGAUGCAGAGGCGGCAGCCUUCGGUCGCGCGAUACCGAUAACGUUCUCAACGAUGACACGCAAAACGCGUGCUCCGUUGAAUGGAGUUUAUCAUG [A23U G50A G83C G92C C95A C96U U109G]
